# According to PubChem BioAssay AID463173 (ICCB-Longwood Screening Facility, Harvard Medical School, 2010):
# Screen size: about 52,000 compounds; about 1,700 (3.3%) were called active. No stated cut-off is given here; in the data, active means survival mostly below about 52% (no sharp cut-off); inactive means mostly above about 56%. This is one part of the list.
# System: Wild type
# Test: S. aureus survival, RN4220 and DeltatarO strains – OD600, teichoic acid synthesis inhibitors, primary screen (AID 463173)
# Conditions: S. aureus RN4220 wild type/DeltatarO growth, OD600, 18 h, hits give low values, screened at 18.75 µg/mL (by protocol)
row,Compound,survival
1,CCOc1ccccc1CNC(=O)CCc1c(C)nn(-c2ccc(N3CCOCC3)nn2)c1C,inactive: 73%
2,CS(=O)(=O)N1CCC(C(=O)Nc2ccccc2)CC1,inactive: 107%
3,O=C(CN1C(=O)COc2ccc(S(=O)(=O)N3CCCC3)cc21)N1CCN(c2cccc(C(F)(F)F)c2)CC1,inactive: 81%
4,Cc1ccc(C(=O)Oc2c(S(=O)(=O)c3ccccc3)c(C)nn2-c2ccccc2)cc1,inactive: 57%
5,CN1C(=O)c2ccccc2Sc2ccc(NC(=O)NCc3cccc(Cl)c3)cc21,inactive: 78%
6,CCOC(=O)CSc1nc(-c2ccc(Cl)cc2)cc(C(F)(F)F)c1C#N,inactive: 68%
7,CC1Cc2ccccc2N1C(=O)CSc1nnc2n1C(C)(C)Cc1ccccc1-2 (stereo not drawn),inactive: 105%
8,Cc1ccc(Cc2nc3ccccc3nc2SCC(=O)N2CCCc3ccccc32)cc1,inactive: 87%
9,Cc1ccccc1C(=O)NCCc1csc(-c2ccc(C(F)(F)F)cc2)n1,inactive: 72%
10,COc1ccc(-n2c(-c3ccc(C)cc3)cc3c2CC(C)(C)CC3=O)c(OC)c1,inactive: 96%
11,Cc1cn2c(=O)cc(COC(=O)c3cccc(NC(=O)COc4ccccc4C)c3)nc2s1,inactive: 80%
12,Cc1ccc(NC(=O)CCNS(=O)(=O)c2cccc3nonc23)cc1Cl,inactive: 60%
13,CN1CCN(C(=O)C2CCCCC2C(=O)O)CC1 (stereo not drawn),inactive: 108%
14,CCC(=O)n1nc(-c2ccc(OC)cc2)nc1SC,inactive: 100%
15,CCCNC(=O)C(C)n1nc(C)c2c(C)n(-c3ccccc3)nc2c1=O (stereo not drawn),inactive: 75%
16,CCOC(=O)C1=C(CC)NC2=C(C(=O)CCC2)C1c1ccccc1 (stereo not drawn),inactive: 101%
17,Cc1ccc(CNC(=O)CSc2c3c(nc4cc(Cl)ccc24)CCCC3)cc1,inactive: 83%
18,Cc1c(-c2nc(-c3ccccc3F)no2)nnn1-c1cc(F)ccc1F,inactive: 72%
19,O=c1oc2cc(O)ccc2cc1-c1nnc(Nc2ccccc2F)s1,inactive: 79%
20,C/C(=N\O)C(=O)NCc1cccnc1,inactive: 107%

row,Compound,survival
1,CCOc1ccccc1NC(=O)Cn1c(=O)n(Cc2ccco2)c(=O)c2ccc(C(=O)NC3CCCC3)cc21,inactive: 82%
2,Clc1ccc2c(c1)CN(C1CCCCC1)CO2,inactive: 109%
3,CCc1ccccc1NC(=O)C1CCN(C(=O)N2CC(C)Oc3ccc(Cl)cc32)CC1 (stereo not drawn),inactive: 85%
4,Cc1cc(F)ccc1NC1(c2ccccc2)C(=O)c2ccccc2C1=O,inactive: 71%
5,COc1ccc(Cl)cc1NC(=O)Cn1nc(Cc2ccncc2)c2ccccc2c1=O,inactive: 80%
6,N=C1SCC(=O)N1c1ccc(Cl)cc1,inactive: 124%
7,CCn1cc(C(=O)NCCc2ccc(OC)c(OC)c2)c(=O)c2cc(S(=O)(=O)N3CCC(C)CC3)ccc21,inactive: 83%
8,CCOc1ccc(-n2c(SCC(=O)N3CCCCCC3)nc3c([nH]c4ccccc43)c2=O)cc1,inactive: 124%
9,Cc1ccc(OC(=O)CSc2nnc(-c3cccs3)o2)cc1C,inactive: 83%
10,O=C(N1CCCCC1)N1CCC(c2nc3ccccc3[nH]2)CC1,inactive: 84%
11,O=c1nc(N2CCOCC2)nc(N2CCOCC2)[nH]1,inactive: 105%
12,CC(C)C(=O)Nc1ccc(NC(=O)c2ccccc2)nc1,inactive: 106%
13,Cc1ccc(NC(=O)c2sc3nc[nH]c(=O)c3c2C)cc1Cl,inactive: 135%
14,CCOc1ccc(N(CC(=O)Nc2ccccc2CC)S(=O)(=O)c2c(C)[nH]c(=O)[nH]c2=O)cc1,inactive: 75%
15,Cc1c(Cl)cccc1-n1ncc(C(=O)NCc2cccs2)c1C1CCN(C(=O)OC(C)(C)C)CC1,inactive: 69%
16,COC(=O)c1c(NC(=O)c2cc(OC)c(OC)c(OC)c2Br)sc2c1CCC(C)C2 (stereo not drawn),inactive: 14%
17,COc1cc(C2c3c(-c4ccc(C)cc4)n[nH]c3C(=O)N2c2ccc(F)cc2)ccc1O (stereo not drawn),inactive: 110%
18,COc1ccc(CNC(=O)CCn2nc(C)c3c(C)n(-c4ccccc4)nc3c2=O)c(OC)c1,inactive: 73%
19,Cc1cccc(NC(=O)c2cc(S(=O)(=O)N3CCN(c4ccccc4F)CC3)ccc2F)c1C,inactive: 72%
20,CNC(=O)Cn1c(=O)c2cccn2c2ccc(F)cc21,inactive: 85%

row,Compound,survival
1,CC(C)CNc1ncnc2c1nnn2C,inactive: 87%
2,O=C(CCNS(=O)(=O)c1cccc2nsnc12)NCc1ccccc1,inactive: 70%
3,COc1ccc(CNC(=O)c2ccc3nc(CCc4ccccc4)oc3c2)c(OC)c1,inactive: 131%
4,COc1ccc(OC)c(C2C(C(=O)N3CCCCC3)=C(C)Nc3nc4ccccc4n32)c1 (stereo not drawn),inactive: 68%
5,N#C/C(=C/c1cn(Cc2ccccc2Cl)c2ccccc12)C(=O)Nc1cccc(Cl)c1,inactive: 104%
6,COc1cc(NC(=O)N2CCC3(CC2)Nc2cc(F)ccc2-n2cccc23)cc(OC)c1OC,inactive: 79%
7,CC(C)(C)c1ccc(CN(Cc2ccco2)c2cnc(S(C)(=O)=O)nc2C(=O)Nc2ccc(F)cc2)cc1,inactive: 119%
8,Cc1cc(C)c(NC(=O)Cn2c(=O)nc(-c3ccccc3)c3cc(Cl)ccc32)c(C)c1,inactive: 70%
9,Cc1ccccc1CN1c2ccccc2-c2nc(SCC(N)=O)ncc2S1(=O)=O,inactive: 80%
10,Cc1cc(=O)n(Cc2cccc(F)c2)c2c1c(C)nn2-c1cccc(F)c1,inactive: 133%
11,CCc1cccc(CC)c1-n1nnc2c(sc3nc(C)cc(C)c32)c1=O,inactive: 85%
12,Clc1ccc(OCc2nc3ccccc3n2Cc2ccccc2)c(Cl)c1,active: 7%
13,O=C(CSc1nc(-c2ccc(F)cc2)[nH]c1-c1ccccc1)Nc1ccccc1,inactive: 70%
14,CCc1ccc(-c2nn(CC(=O)Nc3ccccc3C)c3c2cnc2ccc(C)cc23)cc1,inactive: 79%
15,COc1cc(NC(=O)c2nc3ccccc3nc2N2CCCCC2)cc(OC)c1OC,inactive: 82%
16,Cc1ccc(C)c(NC(=O)c2nn(C)c3c2CS(=O)(=O)c2ccccc2-3)c1,inactive: 90%
17,CC(C)(C)C1CCc2c(sc3nnn(CCOc4ccccc4)c(=O)c23)C1 (stereo not drawn),inactive: 89%
18,COc1cc(/C=C/c2nc(C#N)c(NCCc3ccccc3)o2)cc(OC)c1OC,inactive: 64%
